Data reported in paper PMC8413330.
No constants are given. Whether binding was seen depends on the method and setting. Binding seen in cells or lysates may run through a third protein. Some entries that bind do so weakly or less than the wild type. Sequences can lack the tags named with a protein.

By UniProt entry, the sequences of proteins in these tests, tags left out.
UniProt P51608: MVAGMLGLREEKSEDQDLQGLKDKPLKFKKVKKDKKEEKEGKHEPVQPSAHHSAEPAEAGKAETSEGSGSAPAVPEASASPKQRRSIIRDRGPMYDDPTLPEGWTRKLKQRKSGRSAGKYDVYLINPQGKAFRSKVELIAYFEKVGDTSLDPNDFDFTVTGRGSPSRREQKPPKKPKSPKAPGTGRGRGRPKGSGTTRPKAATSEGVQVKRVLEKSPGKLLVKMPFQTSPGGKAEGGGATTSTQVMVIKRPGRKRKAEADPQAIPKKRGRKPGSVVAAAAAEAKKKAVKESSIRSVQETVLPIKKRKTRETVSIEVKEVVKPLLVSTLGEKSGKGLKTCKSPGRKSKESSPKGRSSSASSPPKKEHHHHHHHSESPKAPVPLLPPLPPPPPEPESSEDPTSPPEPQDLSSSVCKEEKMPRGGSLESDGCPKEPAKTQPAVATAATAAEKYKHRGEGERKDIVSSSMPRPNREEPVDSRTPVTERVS

Molecular target: T1, HA-CXXC5 (UniProt Q7LFL8)
T1 sequence: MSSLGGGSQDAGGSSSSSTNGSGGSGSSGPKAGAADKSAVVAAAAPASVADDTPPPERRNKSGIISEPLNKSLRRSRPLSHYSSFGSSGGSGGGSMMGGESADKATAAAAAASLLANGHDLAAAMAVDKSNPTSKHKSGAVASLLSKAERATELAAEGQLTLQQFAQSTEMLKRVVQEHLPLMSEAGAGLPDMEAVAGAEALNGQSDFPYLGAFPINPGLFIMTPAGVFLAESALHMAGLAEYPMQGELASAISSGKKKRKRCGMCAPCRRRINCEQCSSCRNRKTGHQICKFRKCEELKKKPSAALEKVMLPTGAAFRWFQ
Assay: co-IP; nuclear extracts (500 ug, NE-PER) of transiently co-transfected HEK293 cells (48 h); HA antibody or isotype-matched IgG with protein A and G magnetic beads at 4 °C; washes in 150 mM NaCl, 10 mM HEPES pH 7.5, 10 mM MgCl2, 0.5% Igepal; WB with the Flag or HA antibody

Substance: 3F-MeCP2 (from UniProt P51608 1-486)
- binding: binds
